Results published in the supplement of paper PMC11876631.
Where a chain is given by its changes, count along the chain named. In names and notes the source's numbering stands. Laboratory Escherichia coli strains with one amino-acid change in an essential protein, pooled on minimal glucose agar with carbenicillin or gentamicin at twice the control MIC (plus kanamycin and chloramphenicol for the plasmids), 48 h. Fold change of barcode share against drug-free plates; higher = less susceptible. Active = above 20 in both replicates (the paper's putatively resistant). '<' = one read or none on drug, '>' = one read or none on a drug-free plate. Shares are relative, so most strains fall below 1 when a few take over. Listed are strains with at least 15 reads on both drug-free plates, and hits; most hits rest on fewer reference reads. Replicate rank correlation about 0.5. Edits are read from barcodes.

B1: ispB F75A (protein)
chain: MNLEKINELTAQDMAGVNAAILEQLNSDVQLINQLGYYIVSGGGKRIRPMIAVLAARAVGYEGNAHVTIAALIEAIHTATLLHDDVVDESDMRRGKATANAAFGNAASVLVGDFIYTRAFQMMTSLGSLKVLEVMSEAVNVIAEGEVLQLMNVNDPDITEENYMRVIYSKTARLFEAAAQCSGILAGCTPEEEKGLQDYGRYLGTAFQLIDDLLDYNADGEQLGKNVGDDLNEGKPTLPLLHAMHHGTPEQAQMIRTAIEQGNGRHLLEPVLEAMNACGSLEWTRQRAEEEADKAIAALQVLPDTPWREALIGLAHIAVQRDR
B2: ispB F75Q (protein)
chain: B1 chain with A75Q
B3: ispB I32D (protein)
chain: B1 chain with I32D, A75F
B4: ispB L110Q (protein)
chain: B1 chain with A75F, L110Q
B5: ispB L132Q (protein)
chain: B1 chain with A75F, L132Q
B6: ispD V104P (protein)
chain: MATTHLDVCAVVPAAGFGRRMQTECPKQYLSIGNQTILEHSVHALLAHPRVKRVVIAISPGDSRFAQLPLANHPQITVVDGGDERADSVLAGLKAAGDAQWVLPHDAARPCLHQDDLARLLALSETSRTGGILAAPVRDTMKRAEPGKNAIAHTVDRNGLWHALTPQFFPRELLHDCLTRALNEGATITDEASALEYCGFHPQLVEGRADNIKVTRPEDLALAEFYLTRTIHQENT
B7: ispE V146D (protein)
chain: MRTQWPSPAKLNLFLYITGQRADGYHTLQTLFQFLDYGDTISIELRDDGDIRLLTPVEGVEHEDNLIVRAARLLMKTAADSGRLPTGSGANISIDKRLPMGGGLGGGSSNAATVLVALNHLWQCGLSMDELAEMGLTLGADVPVFDRGHAAFAEGVGEILTPVDPPEKWYLVAHPGVSIPTPVIFKDPELPRNTPKRSIETLLKCEFSNDCEVIARKRFREVDAVLSWLLEYAPSRLTGTGACVFAEFDTESEARQVLEQAPEWLNGFVAKGANLSPLHRAML
B8: ispE V146P (protein)
chain: B7 chain with D146P

These proteins were tested against Escherichia coli (laboratory strain) (assay: barcode share on antibiotic plates over drug-free plates; higher = less susceptible). Details: antibiotic: gentamicin; 2× MIC (MIC 0.45 µg/mL).
Protocol: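 A pool of E. coli strains, each edited to carry one amino-acid change in an essential protein, was grown for 48 h on minimal glucose agar with or without antibiotic; strain barcodes were sequenced; mean of two replicates.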
With B1 the “fold change of barcode share” value was under 0.0193. In the case of B2, the “fold change of barcode share” value is reported as under 0.0208. In the case of B3, the “fold change of barcode share” value is reported as 145 [active]. B4 was tested, and the “fold change of barcode share” value was > 1450 [active]. For B5, the “fold change of barcode share” value was under 0.0135. In the case of B6, the “fold change of barcode share” value is reported as under 0.0171. B7 was tested, and the “fold change of barcode share” value was > 2530 [active]. With B8 the “fold change of barcode share” value was > 160 [active].
